# Among all 94,000 compounds or so, about 6,200 (6.6%) were called active. This list was built around the results that the source calls inconclusive (neither active nor inactive); the mix of calls is not that of the screen. The call rests on the fitted dose curve; in most records, active means well fitted inhibition curve with a large enough effect; inconclusive means small, poorly fitted or top-dose-only effect; inactive means flat fitted curve, though single readings scatter. A potency beside an inconclusive call is a rough fit, not a confirmed value.
# Test: Cytotoxic Profiling in HEK 293 Cell Line of Diverse Libraries Using Quantitative High-Throughput Screening; further: nearly all actives have a fitted effect of over 60% in size
# Settings: HEK 293 viability, ATP luminescence (CellTiter-Glo), 48-72 h; activity change, negative = cytotoxicity: at 115 µM (top of the series) unless noted; series mostly up to 115 µM
# Outline: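 Read-out: CellTiter-Glo ATP luminescence. Cells: HEK 293, 250 cells/well. Exposure: 48 or 72 hr, 37 degree Celsius.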
# On the % scale 0 is the no-effect control and ±100 the full control effect; potency means the concentration at half of the fitted maximal effect; tags describe the fitted curve by direction and shape.
Compound,Potency,"activity change, negative = cytotoxicity"
O=C1CO[C@H]2CCN(Cc3ccc4[nH]ccc4c3)CC[C@@H]2N1Cc1ccc(O)cc1,"inconclusive: 100 µM [inhibitor, partial curve]",
CC(=O)Nc1ccc(S(=O)(=O)N2CCC(CCC(=O)Nc3cccc(C)c3)CC2)cc1,"inconclusive: 79.4 µM [inhibitor, partial curve, poor fit]",
O=C(C[C@@H]1O[C@H](CNS(=O)(=O)c2ccc(Cl)cc2)[C@@H](O)[C@H]1O)N1CCN(c2ccc(F)cc2)CC1,"inconclusive: 56.2 µM [inhibitor, partial curve, poor fit]",
COc1ccccc1CNC(=O)c1cc2n(n1)CC(c1ccc3c(c1)OCO3)OC2 (stereo not given),"inconclusive: 89.1 µM [inhibitor, single point]",
Cc1nn(-c2ccccc2)c2c1C(C)N(CC1CN(C(=O)NC3CCCC3)C1)C2=O (stereo not given),"inconclusive: 89.1 µM [inhibitor, single point]",
CNC(=O)c1cc(C)nc2onc(C3CCCN3C(C)=O)c12 (stereo not given),"inconclusive: 126 µM [inhibitor, single point]",
O=C(NCCC1=CCCCC1)C1CCN(C(=O)c2ncn3c2COC(c2ccc(Cl)cc2)C3)CC1 (stereo not given),"inconclusive: 89.1 µM [inhibitor, single point]",
COc1cccc(CN[C@@H]2CCC[C@@H](C(=O)N(C)Cc3cccnc3)CC(=O)N(C)C2)c1,"inconclusive: 79.4 µM [inhibitor, single point]",
CCN1CCN(CC(=O)N2C[C@@H](C(=O)O)[C@H](c3ccccc3OC)C2)CC1,,inactive: -17.5%
O=C(NC1CC1)c1nc(-c2ccccc2)c2ccccn12,active: 63.1 µM,
CS(=O)(=O)N(C1CC1)C1CCOC2(CCN(C(=O)CCCc3ccccc3)CC2)C1 (stereo not given),"inconclusive: 89.1 µM [inhibitor, single point]",
Cc1ccc(NC(=O)Cn2nc3n(c2=O)CCCC3)cc1Cl,,inactive: 11%
COc1ccc(C2=NOC3(CCCN(CC4CCCCC4)C3)C2)cc1 (stereo not given),"inconclusive: 89.1 µM [inhibitor, single point]",
O=C(C1CCCN1C(=O)c1ccccc1)N1CCC(N2Cc3cccn3C2=O)CC1 (stereo not given),,inactive: -1.82%
CCOC(=O)C1=C(C)N=C2SC=C(CC(=O)Nc3ccc(OC)cc3)N2C1c1ccccc1F (stereo not given),"inconclusive: 79.4 µM [inhibitor, single point]",
O=C(c1ccccn1)N1CCCC(c2nc(CCOCC3CCOCC3)no2)C1 (stereo not given),,inactive: -18.8%
O=C(c1cccc(C(F)(F)F)c1)N1CCN(CCn2nc3n(c2=O)CCCC3)CC1,,inactive: -14.3%
Cc1cc(C)cc(-c2ccc(CN3CCCC3C(=O)N3CCCCC3)cc2)c1 (stereo not given),"inconclusive: 56.2 µM [inhibitor, partial curve, poor fit]",
CC(C)Cn1c(=O)c(C(=O)NCc2cccs2)nc2cccnc21,"inconclusive: 100 µM [inhibitor, partial curve, poor fit]",
C=CCOc1c(OC)ccc2c1CN(C(C)C)C(=O)CCN2CC(O)COc1ccc(OC)cc1 (stereo not given),"inconclusive: 8.91 µM [inhibitor, full curve, poor fit]",

Compound,Potency,"activity change, negative = cytotoxicity"
COc1ccc(-c2noc([C@@H]3C[C@@H](O)CN3Cc3ccc(F)cc3)n2)cc1,"inconclusive: 126 µM [inhibitor, single point]",
COc1ccccc1C(=O)NC1CCN(Cc2cccc(-c3ccc(F)c(F)c3)c2)CC1,"inconclusive: 70.8 µM [inhibitor, partial curve, poor fit]",
Cc1cc(-c2cc3c(cn2)CN(Cc2ccc(C(F)(F)F)cc2)CCN3)ccn1,active: 63.1 µM,
Cn1cnc(S(=O)(=O)N2CCC3(CC2)CC(OCC2CC2)CCO3)c1 (stereo not given),,inactive: -1.22%
CCCN(CCC)C(=O)[C@@]12CCCC[C@H]1N(CCC(C)C)C(=O)CC2,"inconclusive: 100 µM [inhibitor, single point]",
O=C(c1cc(F)ccc1Cl)N1CCC2(CC1)N(c1ccccc1)C(=O)CS2(=O)=O,,inactive: 0.262%
CCCCc1cc(C[C@H]2CNCC[C@H]2CC(=O)Nc2nccs2)no1,"inconclusive: 100 µM [inhibitor, partial curve, poor fit]",
Fc1ccc2oc([C@H]3CCN(Cc4ccc(F)c(F)c4)C3)nc2c1,"inconclusive: 112 µM [inhibitor, single point]",
COc1ccc(OC)c(CN2CCC3OCCN(Cc4ccccc4F)C(=O)C3C2)c1 (stereo not given),"inconclusive: 100 µM [inhibitor, partial curve, poor fit]",
COc1cccc(-c2ccc(C(=O)N3CCC(NC(=O)c4ccc(F)cc4)CC3)cc2)c1,"inconclusive: 50.1 µM [inhibitor, partial curve, poor fit]",
CCC(NC(=O)c1cnc(-c2ccccc2)nc1-c1ccncc1)c1ccc(OC)cc1 (stereo not given),"inconclusive: 39.8 µM [inhibitor, partial curve, poor fit]",
CCC(=O)N1CCCC(c2nc(-c3ccc4nc[nH]c4c3)no2)C1 (stereo not given),,inactive: -0.655%
Cc1cc(C)cc(-c2ccc(CN3CCCC3C(=O)NCc3cccnc3)cc2)c1 (stereo not given),active: 50.1 µM,
COCCc1noc(-c2ccccc2OC2CN(C(=O)CC3CCCC3)C2)n1,"inconclusive: 89.1 µM [inhibitor, single point]",
O=C1c2cnc(-c3ccc(Cl)cc3)nc2OCCN1Cc1ccccc1,"inconclusive: 89.1 µM [inhibitor, partial curve, poor fit]",
COCc1cc(=O)n(CC(=O)Nc2cccc(Br)c2)c(N2CCOCC2)n1,"inconclusive: 12.6 µM [inhibitor, full curve, poor fit]",
Cc1c(CN2CC(Oc3ccccc3C(=O)NCc3ccccc3)C2)cnn1C,"inconclusive: 100 µM [inhibitor, single point]",
COc1ccc(NC(=O)N2CCCC(Cc3noc(-c4ccccc4)n3)C2)cc1 (stereo not given),active: 35.5 µM,
COc1ccc(CNC[C@H]2Cn3cc(-c4ccccc4)nc3CO2)cc1,"inconclusive: 126 µM [inhibitor, single point]",
O=C(c1cccs1)N1CCC2(CCCN(CCC3CCCCC3)C2=O)C1 (stereo not given),"inconclusive: 50.1 µM [inhibitor, partial curve, poor fit]",
